{"source": "PubChem BioAssay (NCATS)", "note": "Some of the results follow. Shown are side measurements of this screen, not its main read-out; they come without a call. Compounds called inactive in the main read-out are mostly missing here."}
{"assay": "qHTS Assay for Lipid Storage Modulators (AID 1519)", "settings": "Drosophila S3 cells, BODIPY lipid droplet/cell ratio, laser cytometry; measured here: cell count channel max response; cells loaded with oleic acid", "in_short": "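Cells seeded at 5,000 per well were treated with compounds over a concentration series and loaded with oleic acid (400 uM, as added). Lipid droplet fluorescence (488 nm excitation, 500-530 nm channel) was read by laser-scanning cytometry and normalized to 20 uM Triacsin C.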", "units": {"max response": "%"}}
{"smiles": "COc1cccc(Nc2ncc3nc(-c4cccs4)c(=O)n(CCC#N)c3n2)c1", "max response": 47.2}
{"smiles": "COc1cccc(-c2nc(N(C)Cc3ccco3)c3ccccc3n2)c1", "max response": 18.5}
{"smiles": "COc1cccc(Cn2c(=O)c(CCc3ccccc3)nc3cnc(N(C)C)nc32)c1", "max response": 28}
{"smiles": "CCNc1ncc2nc(-c3cccc(C#N)c3)c(=O)n(CCC#N)c2n1", "max response": 56.5}
{"smiles": "CN(C)C(=O)c1ccc(-c2nc(-n3ccnc3)c3ccccc3n2)cc1", "max response": 30}
{"smiles": "Cc1c(-c2ccc(O)cc2)nn(-c2ccc(O)cc2)c1-c1ccc(OCCN2CCCCC2)cc1", "max response": 80.6}
{"smiles": "COc1cccc(-c2cncnc2NCCc2c[nH]c3ccc(OC)cc23)c1", "max response": 33.2}
{"smiles": "COc1ccc2[nH]cc(CC(N)C(=O)O)c2c1", "note": "(configuration not stated)", "max response": 108}
{"smiles": "FC(F)(F)c1ccccc1-c1nc(NC2CC2)c2ccccc2n1", "max response": 34.1}
{"smiles": "CN(C)c1ccc(-c2nc(NCCc3cnc[nH]3)c3ccccc3n2)cc1", "max response": 23.5}
{"smiles": "CC(=O)OC1CCC2(C)C3CCC4(C)C(CC5CCCCC54C(C)=O)C3CC(=O)[C@@]2(O)C1", "note": "(some centres not stated)", "max response": 48.5}
{"smiles": "CCCCCCCCCCCCC(=O)N1CCCC[C@H]1CNC(=O)[C@@H](N)CCCCN", "max response": 88.8}
{"smiles": "CCCn1c(=O)c2[nH]c(-c3ccccc3)nc2n(CCC)c1=O", "max response": 76.6}
{"smiles": "CC(=O)NCCNc1nc(-c2ccc3c(c2)OCO3)nc2ccccc12", "max response": 36.9}
{"smiles": "COc1ccc(-c2nc3cnc(OC)nc3n(Cc3cccs3)c2=O)cc1", "max response": 37.6}
{"smiles": "COc1cc2c(cc1OC)C1C(=O)c3ccc4c(c3OC1CO2)C=CC(C)(C)O4", "note": "(configuration not stated)", "max response": -27.2}
{"smiles": "CN(Cc1ccco1)c1ncnc2ccc(-c3ccccc3C#N)cc12", "max response": 29.4}
